Experimental data from publication PMC12677500.
Where two headings read alike, the source gives them in different places. No constants are given. Whether binding was seen depends on the method and setting. Binding seen in cells or lysates may run through a third protein. Some binding calls cover weakened binding; strength is not graded here. For some assays here: Where a sequence is shown, tags or fusion partners need not be part of it. One block for each molecule: values may come before it.

Chains of the proteins cited; added tags and fusions are not shown.
UniProt Q7Z434: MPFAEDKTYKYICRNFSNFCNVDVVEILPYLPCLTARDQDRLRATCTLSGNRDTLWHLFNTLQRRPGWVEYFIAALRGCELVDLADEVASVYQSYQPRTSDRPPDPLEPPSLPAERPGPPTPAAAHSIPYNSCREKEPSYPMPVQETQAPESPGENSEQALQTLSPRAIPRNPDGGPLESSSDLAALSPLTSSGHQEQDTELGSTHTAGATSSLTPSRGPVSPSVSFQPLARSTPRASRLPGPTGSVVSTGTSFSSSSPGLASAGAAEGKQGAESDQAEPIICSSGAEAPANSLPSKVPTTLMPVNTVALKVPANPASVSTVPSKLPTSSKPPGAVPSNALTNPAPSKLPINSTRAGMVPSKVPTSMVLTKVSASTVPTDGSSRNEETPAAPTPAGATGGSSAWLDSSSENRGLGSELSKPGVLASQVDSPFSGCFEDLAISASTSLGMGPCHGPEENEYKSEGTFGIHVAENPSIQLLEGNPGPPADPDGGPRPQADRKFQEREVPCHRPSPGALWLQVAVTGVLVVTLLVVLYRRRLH
UniProt Q9UNE7: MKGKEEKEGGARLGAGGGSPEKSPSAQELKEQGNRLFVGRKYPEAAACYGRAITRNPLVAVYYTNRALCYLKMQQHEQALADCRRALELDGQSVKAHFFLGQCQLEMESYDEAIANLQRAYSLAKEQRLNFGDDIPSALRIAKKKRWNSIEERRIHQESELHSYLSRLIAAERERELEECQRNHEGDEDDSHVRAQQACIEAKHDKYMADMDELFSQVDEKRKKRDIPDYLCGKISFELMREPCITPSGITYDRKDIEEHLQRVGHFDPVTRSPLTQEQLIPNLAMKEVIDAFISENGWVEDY

Columns and labels:
[1] = molecular target: T1, ARCN1-Myc (archain 1, δ subunit of coat protein complex I) (human) (UniProt P48444); test: co-IP; HEK293T cells co-transfected with tagged plasmids; NP-40 lysates incubated overnight at 4°C with magnetic beads carrying anti-Flag, anti-Myc or anti-HA antibodies; Fig 4b precipitated with anti-Myc; cells of Fig 9c-d treated with MG132 (10 μM) for 12 h
T1 sequence: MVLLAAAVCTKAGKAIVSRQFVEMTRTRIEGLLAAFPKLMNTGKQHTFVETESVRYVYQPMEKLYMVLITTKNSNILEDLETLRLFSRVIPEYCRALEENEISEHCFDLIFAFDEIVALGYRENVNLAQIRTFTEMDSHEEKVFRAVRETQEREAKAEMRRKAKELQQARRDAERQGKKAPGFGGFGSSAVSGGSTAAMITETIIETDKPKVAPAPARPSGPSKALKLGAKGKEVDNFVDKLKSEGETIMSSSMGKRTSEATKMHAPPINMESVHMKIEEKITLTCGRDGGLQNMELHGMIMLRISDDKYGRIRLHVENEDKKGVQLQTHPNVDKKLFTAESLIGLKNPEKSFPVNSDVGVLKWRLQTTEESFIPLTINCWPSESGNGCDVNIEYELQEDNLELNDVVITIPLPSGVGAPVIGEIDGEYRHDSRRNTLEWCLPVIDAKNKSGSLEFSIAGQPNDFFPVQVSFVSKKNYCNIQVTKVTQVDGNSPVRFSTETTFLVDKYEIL

[2] = molecular target: T2, endogenous ARCN1 of HEK293T cells (human (endogenous in HEK293T)) (UniProt P48444); test: co-IP; HEK293T cells transfected with STUB1-WT-HA or STUB1-mutant-HA for 36 h, MG132 (10 μM) for 12 h; endogenous ARCN1 precipitated with an anti-ARCN1 antibody
T2 sequence: T1 sequence

[3] = molecular target: T3, ARCN1-MHD-Myc (ARCN1 MHD domain, 271-511 aa) (human) (UniProt P48444); test: co-IP; HEK293T cells co-transfected with tagged plasmids; NP-40 lysates incubated overnight at 4°C with magnetic beads carrying anti-Flag, anti-Myc or anti-HA antibodies; Fig 4b precipitated with anti-Myc; cells of Fig 9c-d treated with MG132 (10 μM) for 12 h
T3 sequence: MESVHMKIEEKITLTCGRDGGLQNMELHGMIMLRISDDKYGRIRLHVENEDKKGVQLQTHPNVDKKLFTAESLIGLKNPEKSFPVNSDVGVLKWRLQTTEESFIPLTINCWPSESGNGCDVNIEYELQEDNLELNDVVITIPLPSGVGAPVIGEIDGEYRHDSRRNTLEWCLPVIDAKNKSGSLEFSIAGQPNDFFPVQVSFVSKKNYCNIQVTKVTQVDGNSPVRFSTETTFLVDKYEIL

[4] = molecular target: T1, ARCN1-Myc (archain 1, δ subunit of coat protein complex I) (human); test: as above; remark: listed apart in the source
[5] = molecular target: T3, ARCN1-MHD-Myc (ARCN1 MHD domain, 271-511 aa) (human); test: as above; remark: listed apart in the source

Molecule: MAVS-Flag (from UniProt Q7Z434 1-540)
binding [1]: no binding

binding [2]: binds
binding [3]: binds
Molecule: STUB1-HA (from UniProt Q9UNE7 1-303)
binding [1]: binds

B1: IKKε-N-Flag (IKKε N-terminal kinase domain, 1-390 aa) (domain or fragment, UniProt Q14164 1-390)
chain: MQSTANYLWHTDDLLGQGATASVYKARNKKSGELVAVKVFNTTSYLRPREVQVREFEVLRKLNHQNIVKLFAVEETGGSRQKVLVMEYCSSGSLLSVLESPENAFGLPEDEFLVVLRCVVAGMNHLRENGIVHRDIKPGNIMRLVGEEGQSIYKLTDFGAARELDDDEKFVSVYGTEEYLHPDMYERAVLRKPQQKAFGVTVDLWSIGVTLYHAATGSLPFIPFGGPRRNKEIMYRITTEKPAGAIAGAQRRENGPLEWSYTLPITCQLSLGLQSQLVPILANILEVEQAKCWGFDQFFAETSDILQRVVVHVFSLSQAVLHHIYIHAHNTIAIFQEAVHKQTSVAPRHQEYLFEGHLCVLEPSVSAQHIAHTTASSPLTLFSTAIPKGL
binding [4]: binds

B2: IRF3-Flag (protein, UniProt Q14653 1-427)
chain: MGTPKPRILPWLVSQLDLGQLEGVAWVNKSRTRFRIPWKHGLRQDAQQEDFGIFQAWAEATGAYVPGRDKPDLPTWKRNFRSALNRKEGLRLAEDRSKDPHDPHKIYEFVNSGVGDFSQPDTSPDTNGGGSTSDTQEDILDELLGNMVLAPLPDPGPPSLAVAPEPCPQPLRSPSLDNPTPFPNLGPSENPLKRLLVPGEEWEFEVTAFYRGRQVFQQTISCPEGLRLVGSEVGDRTLPGWPVTLPDPGMSLTDRGVMSYVRHVLSCLGGGLALWRAGQWLWAQRLGHCHTYWAVSEELLPNSGHGPDGEVPKDKEGGVFDLGPFIVDLITFTEGSGRSPRYALWFCVGESWPQDQPWTKRLVMVKVVPTCLRALVEMARVGGASSLENTVDLHISNSHPLSLTSDQYKAYLQDLVEGMDFQGPGES
binding [4]: no binding

B3: RIG-I-Flag (protein, UniProt O95786 1-925)
chain: MTTEQRRSLQAFQDYIRKTLDPTYILSYMAPWFREEEVQYIQAEKNNKGPMEAATLFLKFLLELQEEGWFRGFLDALDHAGYSGLYEAIESWDFKKIEKLEEYRLLLKRLQPEFKTRIIPTDIISDLSECLINQECEEILQICSTKGMMAGAEKLVECLLRSDKENWPKTLKLALEKERNKFSELWIVEKGIKDVETEDLEDKMETSDIQIFYQEDPECQNLSENSCPPSEVSDTNLYSPFKPRNYQLELALPAMKGKNTIICAPTGCGKTFVSLLICEHHLKKFPQGQKGKVVFFANQIPVYEQQKSVFSKYFERHGYRVTGISGATAENVPVEQIVENNDIIILTPQILVNNLKKGTIPSLSIFTLMIFDECHNTSKQHPYNMIMFNYLDQKLGGSSGPLPQVIGLTASVGVGDAKNTDEALDYICKLCASLDASVIATVKHNLEELEQVVYKPQKFFRKVESRISDKFKYIIAQLMRDTESLAKRICKDLENLSQIQNREFGTQKYEQWIVTVQKACMVFQMPDKDEESRICKALFLYTSHLRKYNDALIISEHARMKDALDYLKDFFSNVRAAGFDEIEQDLTQRFEEKLQELESVSRDPSNENPKLEDLCFILQEEYHLNPETITILFVKTRALVDALKNWIEGNPKLSFLKPGILTGRGKTNQNTGMTLPAQKCILDAFKASGDHNILIATSVADEGIDIAQCNLVILYEYVGNVIKMIQTRGRGRARGSKCFLLTSNAGVIEKEQINMYKEKMMNDSILRLQTWDEAVFREKILHIQTHEKFIRDSQEKPKPVPDKENKKLLCRKCKALACYTADVRVIEECHYTVLGDAFKECFVSRPHPKPKQFSSFEKRAKIFCARQNCSHDWGIHVKYKTFEIPVIKIESFVVEDIATGVQTLYSKWKDFHFEKIPFDPAEMSK
binding [4]: no binding

B4: TBK1-Flag (protein, UniProt Q9UHD2 1-729)
chain: MQSTSNHLWLLSDILGQGATANVFRGRHKKTGDLFAIKVFNNISFLRPVDVQMREFEVLKKLNHKNIVKLFAIEEETTTRHKVLIMEFCPCGSLYTVLEEPSNAYGLPESEFLIVLRDVVGGMNHLRENGIVHRDIKPGNIMRVIGEDGQSVYKLTDFGAARELEDDEQFVSLYGTEEYLHPDMYERAVLRKDHQKKYGATVDLWSIGVTFYHAATGSLPFRPFEGPRRNKEVMYKIITGKPSGAISGVQKAENGPIDWSGDMPVSCSLSRGLQVLLTPVLANILEADQEKCWGFDQFFAETSDILHRMVIHVFSLQQMTAHKIYIHSYNTATIFHELVYKQTKIISSNQELIYEGRRLVLEPGRLAQHFPKTTEENPIFVVSREPLNTIGLIYEKISLPKVHPRYDLDGDASMAKAITGVVCYACRIASTLLLYQELMRKGIRWLIELIKDDYNETVHKKTEVVITLDFCIRNIEKTVKVYEKLMKINLEAAELGEISDIHTKLLRLSSSQGTIETSLQDIDSRLSPGGSLADAWAHQEGTHPKDRNVEKLQVLLNCMTEIYYQFKKDKAERRLAYNEEQIHKFDKQKLYYHATKAMTHFTDECVKKYEAFLNKSEEWIRKMLHLRKQLLSLTNQCFDIEEEVSKYQEYTNELQETLPQKMFTASSGIKHTMTPIYPSSNTLVEMTLGMKKLKEEMEGVVKELAENNHILERFGSLTMDGGLRNVDCL
binding [4]: no binding

binding [5]: binds
B5: IKKε-Flag (protein, UniProt Q14164 1-716)
chain: MQSTANYLWHTDDLLGQGATASVYKARNKKSGELVAVKVFNTTSYLRPREVQVREFEVLRKLNHQNIVKLFAVEETGGSRQKVLVMEYCSSGSLLSVLESPENAFGLPEDEFLVVLRCVVAGMNHLRENGIVHRDIKPGNIMRLVGEEGQSIYKLTDFGAARELDDDEKFVSVYGTEEYLHPDMYERAVLRKPQQKAFGVTVDLWSIGVTLYHAATGSLPFIPFGGPRRNKEIMYRITTEKPAGAIAGAQRRENGPLEWSYTLPITCQLSLGLQSQLVPILANILEVEQAKCWGFDQFFAETSDILQRVVVHVFSLSQAVLHHIYIHAHNTIAIFQEAVHKQTSVAPRHQEYLFEGHLCVLEPSVSAQHIAHTTASSPLTLFSTAIPKGLAFRDPALDVPKFVPKVDLQADYNTAKGVLGAGYQALRLARALLDGQELMFRGLHWVMEVLQATCRRTLEVARTSLLYLSSSLGTERFSSVAGTPEIQELKAAAELRSRLRTLAEVLSRCSQNITETQESLSSLNRELVKSRDQVHEDRSIQQIQCCLDKMNFIYKQFKKSRMRPGLGYNEEQIHKLDKVNFSHLAKRLLQVFQEECVQKYQASLVTHGKRMRVVHETRNHLRLVGCSVAACNTEAQGVQESLSKLLEELSHQLLQDRAKGAQASPPPIAPYPSPTRKDLLLHMQELCEGMKLLASDLLDNNRIIERLNRVPAPPDV
binding [4]: binds

binding [2]: binds
B6: endogenous IKKε of HEK293T cells (protein, UniProt Q14164 1-716)
chain: B5 chain
